# Publication PMC6919601, “Identification of Plasmodium dipeptidyl aminopeptidase allosteric inhibitors by high throughput screening” (PLoS ONE, 2019)
# Screen size: about 110,000 compounds; about 230 (0.21%) showed an effect of 50% or more. The list shows a part of the results. Where a SMILES comes first, the peptide text is derived from it. The star is where a group is joined. Boc = CC(C)(C)OC(=O)*
# Target: DPAP1 (Plasmodium falciparum, UniProt Q8IIJ9)
# Assay: primary screen, percent inhibition; read by cleavage of a fluorogenic dipeptide substrate; higher = more effect of the substance
# Set-up: species or system P. falciparum D10 trophozoite lysates; single well
# 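Note: 30 min substrate incubation versus DMSO and 10 µM JCP410 controls.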
# DPAP1, sequence (Q8IIJ9 whole entry, looked up): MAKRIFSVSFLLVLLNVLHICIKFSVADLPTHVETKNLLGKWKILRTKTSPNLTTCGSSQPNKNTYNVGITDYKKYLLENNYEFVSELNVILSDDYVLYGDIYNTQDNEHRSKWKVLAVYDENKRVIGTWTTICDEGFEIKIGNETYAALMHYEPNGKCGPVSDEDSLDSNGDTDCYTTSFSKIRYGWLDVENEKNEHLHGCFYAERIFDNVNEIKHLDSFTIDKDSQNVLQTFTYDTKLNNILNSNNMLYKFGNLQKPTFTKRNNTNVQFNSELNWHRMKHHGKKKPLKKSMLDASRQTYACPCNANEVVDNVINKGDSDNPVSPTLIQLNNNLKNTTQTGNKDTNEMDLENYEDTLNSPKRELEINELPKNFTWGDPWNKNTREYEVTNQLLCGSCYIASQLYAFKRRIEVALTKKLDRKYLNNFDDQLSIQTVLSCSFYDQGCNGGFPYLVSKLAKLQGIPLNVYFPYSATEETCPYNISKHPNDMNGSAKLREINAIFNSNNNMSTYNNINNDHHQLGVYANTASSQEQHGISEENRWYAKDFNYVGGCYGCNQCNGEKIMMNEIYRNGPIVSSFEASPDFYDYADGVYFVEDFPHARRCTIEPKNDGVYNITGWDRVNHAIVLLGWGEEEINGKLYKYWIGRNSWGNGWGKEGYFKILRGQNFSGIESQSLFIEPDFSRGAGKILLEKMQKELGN
row,Structure (SMILES),% Inhibition @ 10 uM [%]
1,C=CCn1c(=O)c(C(=O)Nc2nc(C3C4CC5CC(C4)CC3C5)cs2)c(O)c2ccccc21 (stereo not shown),7
2,CC(C)(C)C1CCc2c(sc(NC(=O)c3ccccc3Cl)c2C(=O)NCCO)C1 (stereo not shown),14.2
3,CN(C)Cc1cc(C(C)(C)C)c(O)c(C(C)(C)C)c1,-5.35
4,COC(=O)C1=C(C)NC(=O)CC1c1ccccc1C(F)(F)F (stereo not shown),1.88
5,COc1ccc(C2C(C#N)=C3N=C(N)c4c(sc5c4CCCC5)N3C3=C2C(=O)CCC3)cc1OC (stereo not shown),-2.39
6,COc1ccc(C(=O)N(Cc2ccccc2)Cc2ccccc2)cc1OC,-0.192
7,CC(C)CN1C(=O)c2ccccc2C(C(=O)NCc2ccc3c(c2)OCO3)C1c1cccs1 (stereo not shown),-3.77
8,CCOc1cc(C2C(C(=O)OC)=CN(C)C=C2C(=O)OC)ccc1O,-3.23
9,COc1cccc(CN2CCN(Cc3cccc(OC)c3OC)CC2)c1OC,-2.58
10,Fc1ccc2c(c1)[C@@H]1C=CC[C@@H]1[C@H](c1ccccc1)N2,1.37
11,COc1ccccc1C1CC(=O)NC(SCC(=O)N2CCCC2)=C1C#N (stereo not shown),0.343
12,CCOC(=O)c1c(NS(=O)(=O)c2ccc(C)cc2)sc(C)c1C,7.93
13,O=C(C1=C(O)C(=O)N(CCCO)C1c1ccccc1)c1ccc(Br)cc1 (stereo not shown),-13.3
14,Cc1ccc(C2C(C#N)=C(N)Oc3c2c(C)nn3-c2ccc(C)cc2)cc1 (stereo not shown),-0.941
15,Cc1c(C(=O)NCCc2ccc(Cl)cc2)oc2ccc3c(c12)C(=O)CC(C)(C)O3,4.83
16,O=C(NC1CCCc2ccccc21)C1CCCN(S(=O)(=O)c2c[nH]cn2)C1 (stereo not shown),-4.1
17,COc1cc(Br)cc(-c2nc3ccccc3s2)c1O,-4.15
18,COc1ccccc1-n1cnc2cc(C(=O)N3CCOCC3)ccc21,2.8
19,Nc1nc2ccccc2n1Cc1cccc2nonc12,-8.3
20,COc1cc(OC)c(OC)cc1CN1CCNCC1,-5.98
21,CCc1c(C)nc2cc(-c3ccccc3)nn2c1O,-3.84
22,CCCC12CN3CC(CCC)(CN(C1)C3c1ccc(O)c(OC)c1)C2=O (stereo not shown),0.222
23,Cc1ccc(/C=C(/C#N)c2nc(-c3cc4ccccc4oc3=O)cs2)cc1,0.912
24,CCN(CC)CCNC(=O)CS(=O)Cc1nc(-c2ccc(OC)c(OC)c2)oc1C (stereo not shown),-1.05
25,COc1ccc(-c2cc(C(=O)Nc3ccccc3C(N)=O)c3ccccc3n2)cc1OC,3.86

row,Structure (SMILES),% Inhibition @ 10 uM [%]
1,OC(CNCCc1ccccc1)Cn1nnnc1-c1ccccc1 (stereo not shown),1.49
2,Cc1oc(-c2cccc(Cl)c2)nc1CS(=O)(=O)CC(=O)NC1CCC(C)CC1 (stereo not shown),2.04
3,CC1CC2=Nc3ncnn3C(c3ccccc3)C2=C(O)C1 (stereo not shown),3.36
4,COC(=O)c1cc(S(=O)(=O)NCCc2ccc(SC)cc2)c[nH]1,2.29
5,Cc1ccc(C2C(=O)c3ccccc3C2=O)c(C)c1C,-4.21
6,COc1ccc(C2C(C(=O)NCC3CCCO3)c3ccccc3C(=O)N2Cc2ccc(F)cc2)cc1 (stereo not shown),3.61
7,Oc1ncc(CN2CCOCC2)c(O)n1,-4.15
8,CCCCN1CCc2nc(S)nc(O)c2C1,-6.08
9,COc1ccc2nc(-c3ccco3)c(-c3ccco3)nc2c1,7.56
10,CCCCOc1ccc(-c2c(C#N)c(N)nc(SCc3ccc(Cl)cc3)c2C#N)cc1,0.937
11,Cc1ccc(NC(=O)COc2ccccc2C)cc1C,1.59
12,Cc1cc(C)c2c(n1)SCC(=O)N2CC(=O)NCCCOC(C)C,-2.37
13,O=C(CSc1nc2c(c(=O)n1CCc1ccccc1)SCC2)N1CCOCC1,0.0147
14,C#CC(CO)NCc1ccccc1 (stereo not shown),-1.76
15,CC(C)(C)OC(=O)N1CCCC1C(=O)NC(Cc1ccccc1)C(=O)O (stereo not drawn) (Boc-Pro-Phe-OH; configuration not given here),0.275
16,C=CCSc1nc(SCC=C)c2cnc(N3CCN(C)CC3)nc2n1,0.751
17,COc1ccc(CN2CC(C(=O)NCc3ccccc3Cl)CC2=O)cc1 (stereo not shown),-1.79
18,Cc1ccccc1NC(=O)CN1C(=O)N/C(=C\c2cccn2-c2cccc(C(=O)O)c2)C1=O,5.03
19,COc1ccccc1-c1cc2nc(C)c(CCC(=O)N3CCCC3)c(C)n2n1,2.93
20,CCOCCCNC(=O)C(Cc1ccccc1)NS(=O)(=O)c1cccc2nsnc12 (stereo not shown),-3.23
21,CCCN1C/C(=C\c2ccc(F)cc2)C(=O)/C(=C/c2ccc(F)cc2)C1,1.63
22,Cc1ccccc1-c1nnc2n1C(C)(C)Cc1ccccc1-2,-0.267
23,COc1ccc(C(=O)N2CCC3(CC2)N=C(c2ccc(C)c(C)c2)C(=O)N3)cc1,4.44
24,O=C(Nc1cccc(C(=O)Nc2ccccc2Cl)c1)c1ccc([N+](=O)[O-])cc1,-0.268
25,Cc1ccc(S(=O)(=O)N(CC(=O)NC2CCCC2)c2ccc(Br)cc2)cc1,-5.88

row,Structure (SMILES),% Inhibition @ 10 uM [%]
1,Cc1ccc(OC(C)C(=O)Nc2cc(C)ccc2C)cc1 (stereo not shown),-2.19
2,CCOC(=O)C1=C(NC(=O)c2ccc(C)cc2)S/C(=C\c2ccc(OCC(=O)O)cc2)C1=O,6.28
3,COc1ccc(CCCC(=O)Nc2cccc(Br)c2)cc1,-6.94
4,CCOC(=O)C1CCCN(CC2=CC[C@H]3C[C@@H]2C3(C)C)C1 (stereo partly shown),1.62
5,Cc1ccc(-n2nnc(-c3nsc(NC(=O)c4ccccc4Cl)n3)c2C)cc1,-1.71
6,O=C1c2ccccc2-c2c1ccc[n+]2[O-],-5.35
7,Cc1ccc2c(c1)-c1onc(C(=O)N3CCN(c4ccccn4)CC3)c1CO2,3.31
8,COc1cc(C2C(C#N)=C(N)OC3=C2C(=O)CC(C)(C)C3)ccc1OCc1cccc(F)c1 (stereo not shown),-7.64
9,Cc1ccccc1C(=O)Nc1c(C(=O)N(CCN(C)C)Cc2ccco2)oc2ccccc12,-2.35
10,CC(=O)c1ccc(NC(=O)CCCC(=O)Nc2ccc(C(C)=O)cc2)cc1,0.983
11,O=C(NCc1ccccc1)C(O)(c1ccccc1)c1ccccc1,2.6
12,Cn1cccc1Cc1nnc(SCC(=O)NC2CCCC2)n1C,0.809
13,C=C(C)CN(CC)Cc1ccccc1O,-0.0494
14,O=C(COCc1cc(-c2ccc3c(c2)OCO3)on1)Nc1cccnc1Cl,8.8
15,Nc1ccc(S(=O)(=O)Nc2ccc(Oc3ccccc3)cc2)cc1,-2.03
16,Cc1ccc(C)n1Cc1ccc(C(=O)O)cc1,-2.26
17,Cc1cc2nc3c(nc2cc1C)C1(C(=O)O)CCC3(C)C1(C)C (stereo not shown),0.83
18,O=C1c2ccccc2C(=O)N1CCCOc1ccccc1[N+](=O)[O-],6.43
19,COc1ccc(CNS(=O)(=O)c2ccc(-n3cccn3)cc2)cc1,-6.67
20,c1cc(CN2CCOCC2)ccc1CN1CCOCC1,-0.0267
21,Cc1nc(N2CCN(c3ncccn3)CC2)c2c3c(sc2n1)CCCC3,-7.28
22,O=C(NCCc1ccc(Cl)cc1)c1ccc(Cn2c(=O)[nH]c3ccsc3c2=O)cc1,-3.27
23,CCC1CCC(=O)N2CCc3c([nH]c4ccccc34)C12 (stereo not shown),-8.58
24,CN(Cc1ccccc1)C(=O)c1cc(-c2ccc(Cl)c(Cl)c2)on1,-1.21
25,C/C=C(\C)CN1CCCC(C(N)=O)C1 (stereo not shown),4.9

row,Structure (SMILES),% Inhibition @ 10 uM [%]
1,Cc1ccc2cc(C)c(Nc3ccc(Cl)cc3)nc2c1,-5.23
2,CCOC(=O)N1CCN(c2ccc([N+](=O)[O-])cc2F)CC1,2.05
3,CCSc1nc2c(c(=O)n1C)C1(CCCCC1)Cc1ccccc1-2,-2.44
4,CC1(C)CC2=Nc3nc(N)nc(O)c3C(c3ccc(F)cc3)C2=C(O)C1 (stereo not shown),2.31
5,CNC(=O)N1c2ccccc2C=Cc2ccccc21,-5.04
6,Cc1cc2ncn(CCOc3ccc(Cl)cc3)c2cc1C,-4.07
7,CS(=O)(=O)N(CC(=O)Nc1cc(C(F)(F)F)ccc1Cl)c1ccc(Br)cc1,-2.29
8,CC1=C(C(=O)OCc2ccc(C)cc2)C(c2ccc(Cl)cc2Cl)CC(=O)N1 (stereo not shown),-4.81
9,CC(=O)c1cc2cc(F)ccc2oc1=O,1.02
10,CC(C)Nc1oc(Cc2cccc3ccccc23)nc1C#N,-4.67
11,CN(CCNC(=O)CN1N=C(c2ccccc2)CCC1=O)Cc1ccccc1,3.79
12,O=C(NCCCc1ccccc1)c1cc(S(=O)(=O)N2CCCCC2)c[nH]1,-4.07
13,CCNS(=O)(=O)c1cccnc1N1CCN(CCO)CC1,-3.92
14,COc1ccc2ccccc2c1/C=C1/N=C(c2ccccc2F)OC1=O,2.81
15,CCCCn1c2ccccc2n2c(C(C)=O)c(-c3ccccc3)nc12,0.00773
16,COc1ccccc1OCC(O)CN1C(=O)NC(C)(C)C1=O (stereo not shown),3.59
17,CC(=O)N1c2ccccc2N=C2CC(C)(C)CC(O)=C2C1c1ccc(C#N)cc1 (stereo not shown),5.9
18,CCOc1cccc2c1Oc1nc(-c3cc(Cl)ccc3O)nc(O)c1C2,-2.84
19,CCCCC1CCC(c2noc(-c3ccc([N+](=O)[O-])cc3)n2)CC1 (stereo not shown),-1.96
20,CC(C)c1ccc(N2C(=O)NC(=O)/C(=C/c3ccco3)C2=O)cc1,-0.274
21,COc1ccc(-n2cnc3cc(C(=O)NCCN4CCOCC4)ccc32)cc1,-2.17
22,CC1(C)Cc2ccccc2-c2nnc(-c3ccc4ccccc4n3)n21,1.48
23,C=CCNC(=O)C(=O)Nc1ccc(Cl)c(Cl)c1,1.37
24,CCCNC(=O)C1CCCN(Cc2nc(-c3ccc(Cl)cc3)oc2C)C1 (stereo not shown),-1.05
25,NS(=O)(=O)c1cc(C(=O)Nc2nc(-c3ccccc3)cs2)c(Cl)cc1Cl,10.6
